Among all 16,000 compounds or so, about 120 (0.75%) were called active. Roughly 4% stayed inconclusive and do not appear here. The call rests on the fitted dose curve; in most records, active means well fitted inhibition curve with a large enough effect; inconclusive means small, poorly fitted or top-dose-only effect; inactive means no such curve, though single readings can be large or run the other way. The list shows a part of the results.
Biological target: Rap guanine nucleotide exchange factor 3 (Homo sapiens) (UniProt O95398)
Test: Validation qHTS for antagonist of cAMP-regulated guanine nucleotide exchange factor 3 (EPAC1);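 further: plate controls were DMSO for no effect and ATA control for full effect; nearly all actives have a fitted effect of over 75% in size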
Conditions: EPAC1 Rap1B-BODIPY-GDP exchange, fluorescence; series mostly up to 150 µM; activity change, negative = inhibition: at the top concentration
Summary of the method: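 Nucleotide exchange followed as fluorescence loss when BODIPY-GDP leaves Rap1B (480 nm excitation, 540 nm emission), read at 5 min intervals over 30 min. Reaction: 100 nM EPAC1, 250 nM RAP1B-BODIPY-GDP, 50 uM GDP; ATA and DMSO define normalization.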

Sequence of UniProt O95398 (O95398 whole entry, looked up): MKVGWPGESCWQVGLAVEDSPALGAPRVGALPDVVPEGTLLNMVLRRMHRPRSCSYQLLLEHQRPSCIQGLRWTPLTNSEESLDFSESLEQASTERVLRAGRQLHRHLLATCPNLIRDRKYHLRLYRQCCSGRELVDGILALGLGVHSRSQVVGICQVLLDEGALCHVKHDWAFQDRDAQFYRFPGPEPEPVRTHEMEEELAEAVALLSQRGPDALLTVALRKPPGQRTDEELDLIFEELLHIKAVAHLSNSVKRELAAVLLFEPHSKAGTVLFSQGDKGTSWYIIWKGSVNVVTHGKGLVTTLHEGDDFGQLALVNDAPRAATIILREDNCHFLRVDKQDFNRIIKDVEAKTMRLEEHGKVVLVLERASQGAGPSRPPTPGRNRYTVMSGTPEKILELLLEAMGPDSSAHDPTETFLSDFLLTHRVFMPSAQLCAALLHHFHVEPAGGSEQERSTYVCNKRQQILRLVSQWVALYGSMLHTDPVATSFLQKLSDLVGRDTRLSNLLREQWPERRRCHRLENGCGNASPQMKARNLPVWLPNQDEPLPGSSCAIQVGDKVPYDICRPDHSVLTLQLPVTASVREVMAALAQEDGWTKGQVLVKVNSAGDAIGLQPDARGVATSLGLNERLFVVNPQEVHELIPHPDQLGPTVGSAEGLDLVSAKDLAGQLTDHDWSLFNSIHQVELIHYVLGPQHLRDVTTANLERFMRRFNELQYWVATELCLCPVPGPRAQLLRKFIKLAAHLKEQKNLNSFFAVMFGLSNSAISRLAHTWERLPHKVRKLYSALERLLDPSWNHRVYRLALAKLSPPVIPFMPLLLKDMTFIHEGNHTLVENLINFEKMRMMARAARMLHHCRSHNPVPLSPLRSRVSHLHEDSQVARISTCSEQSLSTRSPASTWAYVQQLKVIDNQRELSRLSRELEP

Activity change, negative = inhibition, inactive:
CC(=O)Nc1ccc(S(=O)(=O)Nc2cc(C)on2)cc1 22.7%
CC(=O)NCCNc1cc(-c2ccccc2C)ncn1 -2.16%
CC(C)C[C@@H](CC#N)N1CCN(CCc2ccccc2)CCC1=O 8.75%
Cc1ccc(CNc2ncnc3sc(C(=O)N4CCC[C@H]4C(N)=O)c(C)c23)o1 12.2%
O=C(O)CP(=O)(O)O
CN(C)c1ncc2nc(-c3cc(F)cc(F)c3)c(=O)n(C[C@H]3CCCO3)c2n1 2.17%
CC1(C)CC(=O)C([C@H]2C3=C(CC(C)(C)CC3=O)Oc3ccccc32)C(=O)C1 8.35%
O=C1CCN(Cc2ccccc2)CCN1CCO 19.8%
CC(C1OC(C)(C)C(O)C1O)C1CC[C@@]2(C)C3=CCC4C(C)(C)C(=O)CC[C@]4(C)C3CC[C@@]12C (stereo not given in full) -3.16%
COc1ccc(CN2CCC3(CCC(CNC(=O)c4ccnn4C)O3)CC2)c(C)c1C (stereo not given) 16.5%
OCC(O)C(O)[C@H](O[C@H]1OC(CO)C(O)C(O)C1O)[C@H](O)CO (stereo not given in full) 16.9%
CC[N+](CC)(CC)c1ccc(/C=C/c2ccnc3ccccc23)cc1 -28.4%
COCCn1c(=O)cnc2cnc(Oc3cccc(Cl)c3)nc21 9.04%
Cc1c(C(=O)N2CC[C@@H]3CCCC[C@H]3C2)sc2ncnc(NCCc3ccccn3)c12 2.45%
CCCCN1C[C@H](C)[C@@H](CC(=O)NCc2ccccc2)C1=O -4.59%
Cc1ccccc1-c1ccc2ncnc(N3CCN(C)CC3)c2c1 7.14%
COC(=O)c1c(OCc2ccccc2)cc(=O)n2c1CCN(Cc1cccc(C)n1)CC2 4.19%
NCCNC(=O)c1ccc(Cl)cc1 1.72%
CC1=C(C2=C(C)C(C(C)C)C3=C(C(=O)C(O)C3O)C2O)C(O)C2=C(C(O)C(O)C2=O)C1C(C)C (stereo not given) 20.4%
Cc1c(C(=O)N2CCCCC2)sc2ncnc(NCCN(C)C)c12 7.14%
CS(=O)(=O)N1CCC2(CCN(C(c3ccccc3)c3ccccc3)CC2)CC1 -3.35%
CCCSc1ccc2nc(NC(=O)OC)[nH]c2c1
Clc1cccc2c1CN(C1=NCCN1)C2 6.33%
COc1ccc(CCC(=O)O)cc1 10.7%
COc1ccc(/C=C/C(=O)c2ccc(O)cc2O)cc1OC -2.86%
CCN(CC)CCCCCCCCOC(=O)c1cc(OC)c(OC)c(OC)c1
Cc1ccc(-c2ccc(C(=O)N3CCc4nnc(CNC(=O)c5ccccc5)n4CC3)cc2)cc1 3.25%
O=C(Nc1nccs1)[C@@H]1CC=C[C@@H]2CCN(C3CCCCC3)C(=O)[C@@H]21 10.7%
COCc1c(C(=O)NC2CCCCC2)cnn1-c1nccc(-c2cc(C)sc2C)n1 -11.3%
FC(F)OC(Cl)C(F)(F)F (stereo not given) 460%
COCC(=O)N1CCC2(CC1)CCN(C(=O)NC(C)C)CC2 -2.25%
Cc1ncc2c(c1CNC(=O)c1cncs1)CCN(C(=O)c1ccc(C(F)(F)F)cc1)C2 5.03%
CC(C)CN1CC[C@@]2(CCCN(S(=O)(=O)c3ccccc3)C2)C1 15.9%
Cn1cccc1C(=O)N1CCC2(CCN(Cc3ccccc3)CC2)CC1 24.4%
c1ccc(Cc2nnc3n2CCN(Cc2cnc(-c4ccccc4)s2)CC3)cc1 20.3%
CCCCCCCCCCCCC/C=C/[C@@H](O)[C@@H](N)CO
COc1ccccc1OCC(O)COC(N)=O (stereo not given)
COCC(=O)N1CCC2(CC1)CCN(C(=O)Nc1ccc(OC)cc1)CC2 12.8%
O=S(=O)(NCc1ccc(F)cc1)c1ccc(Br)cc1Br -20.5%
Nc1ccn([C@@H]2CS[C@H](CO)O2)c(=O)n1 19.9%
COc1ccc(C2Sc3ccccc3N(CCN(C)C)C(=O)[C@@H]2OC(C)=O)cc1 (stereo not given in full)
CN(C)C(=O)Oc1ccc[n+](C)c1
Nc1c2c(nc3ccccc13)CCCC2O (stereo not given)
COc1ccc(Oc2ncc3nc(-c4cccc(C#N)c4)c(=O)n(Cc4cccc(OC)c4)c3n2)cc1 3.4%
O=C(Cc1ccc2c(c1)OCO2)N1CCOc2ccc(CN3CCOCC3)cc2C1 10.7%
Cc1cc(N)c2ccccc2[n+]1CCCCCCCCCC[n+]1c(C)cc(N)c2ccccc21
CC(=O)OCC1OC(Oc2cc(OC(C)=O)c3c(=O)cc(-c4ccc(OC(C)=O)cc4)oc3c2)[C@@H](OC(C)=O)C(OC(C)=O)C1OC(C)=O (stereo not given in full) 3.75%
CNc1ccccc1C(=O)N1CCc2c([nH]c3ccccc23)C1=O 17.4%
CC1=C(C(=O)O)N2C(=O)[C@@H](NC(=O)C(N)c3ccccc3)[C@H]2SC1 (stereo not given in full) 1.61% [at 75.8 µM]
N#CCCn1c(=O)c(-c2ccc(F)cc2)nc2cnc(Oc3ccccc3)nc21 20.1%
COc1ccc2c(=O)c(CC(=O)O)coc2c1 -8.1%
CN1CCN(c2ncc3nc(CCc4ccccc4)c(=O)n(C4CC4)c3n2)CC1 -2%
COc1ccc2c(=O)c3ccccc3oc2c1 0.074%
C[C@@H]1OC(OC2CC[C@@]3(C)C(CC[C@@]4(C)C3CC=C3C5CC(C)(C)CC[C@]5(C(=O)OC5OCC(O)[C@@H](O)[C@@H]5OC5O[C@@H](C)[C@H](O[C@H]6OC(CO)C(O)C(O)C6O)C(O)C5O)C(O)C[C@@]34C)C2(C)C)C(O)C(O)[C@H]1OC1OCC(O)C(O)[C@H]1O (stereo not given in full) 41.5%
CN1CCN(c2ncc3nc(-c4ccc(F)cc4)c(=O)n(C4CC4)c3n2)CC1 29.3%
Nc1nc2ncc(CNc3ccc(C(=O)NC(CCC(=O)O)C(=O)O)cc3)nc2c(=O)[nH]1 (stereo not given) 8.96%
O=C(NCC1CCC2(CCN(Cc3cccc(-c4ccco4)c3)CC2)O1)c1ccccc1 (stereo not given) 7.19%
CC(C)=CCc1c(O)cc(O)c2c1O[C@H](c1ccccc1)CC2=O -10.6%
COCCN(C)C(=O)c1cnn(-c2ncc3c(n2)-c2ccccc2CCC3)c1C1CC1 18.1%
O=c1cc(-c2ccccc2)oc2cccc(O)c12
O=C(NC1CCN(CCc2c[nH]c3ccccc23)CC1)c1ccccc1 17.9%
C=C[C@H](CC(C)C)N(Cc1ccccc1)S(=O)(=O)N(Cc1ccccc1)[C@H](C=C)CC(C)C -1.4%
COc1cccc(Cn2c(=O)c(-c3cn(C)c4ccccc34)nc3cnc(N4CCOCC4)nc32)c1 9.74%
C[C@@H]1C(=O)NC2=Nc3cccc(Cl)c3CN21
Cc1ccc2cccc(O)c2n1 11.2%

From PubChem BioAssay AID1645882 (National Center for Advancing Translational Sciences (NCATS), 2021)
